Patent US9005633B2 (priority 2009, dated 2015)
Like-named read-outs stand apart in the source and are kept apart here.

Test system: DENV-1 West Pac 74
Conditions: 10 ug/ml psoralen compound, Centri-sep purified
Description: 5 ml aliquots of DENV-1 viral culture supernatant at a concentration of 3.4×10^5 plaque-forming units (PFU)/ml were transferred into 60×15 mm Petri dishes. Four test groups of dishes were made. A single psoralen compound (either AMT, 8-MOP, or TMP) was added to each dish in the first three groups, while the fourth group had no psoralen added and served as control. Dishes were exposed to UVA radiation at 365 nm (UVAB-18 lamp, UltraLum, Inc., Claremont, Calif.) for 0, 1, 5, 10, or 20 minutes at an intensity of 200 or 1000 μW/cm^2. Specimens were then re-titered in BHK cell culture to assess for plaque formation.

[1] = UV-A 200 uW/cm^2, UV time 0 min
[2] = UV-A 200 uW/cm^2, UV time 1 min
[3] = UV-A 200 uW/cm^2, UV time 5 min
[4] = UV-A 200 uW/cm^2, UV time 10 min
[5] = UV-A 200 uW/cm^2, UV time 20 min
[6] = UV-A 1000 uW/cm^2, UV time 0 min
[7] = UV-A 1000 uW/cm^2, UV time 1 min
[8] = UV-A 1000 uW/cm^2, UV time 5 min
[9] = UV-A 1000 uW/cm^2, UV time 10 min
[10] = UV-A 1000 uW/cm^2, UV time 20 min

Compound	DENV-1 titer (PFU) after psoralen and UV-A [1]	DENV-1 titer (PFU) after psoralen and UV-A [2]	DENV-1 titer (PFU) after psoralen and UV-A [3]	DENV-1 titer (PFU) after psoralen and UV-A [4]	DENV-1 titer (PFU) after psoralen and UV-A [5]	DENV-1 titer (PFU) after psoralen and UV-A [6]	DENV-1 titer (PFU) after psoralen and UV-A [7]	DENV-1 titer (PFU) after psoralen and UV-A [8]	DENV-1 titer (PFU) after psoralen and UV-A [9]	DENV-1 titer (PFU) after psoralen and UV-A [10]
COc1c2occc2cc2ccc(=O)oc12 [8-MOP, 8-Methoxypsoralen]	6.14 × 10^5 PFU/ml	4.35 × 10^5 PFU/ml	2.94 × 10^5 PFU/ml	2.18 × 10^5 PFU/ml	1.66 × 10^5 PFU/ml	6.14 × 10^5 PFU/ml	3.46 × 10^5 PFU/ml	1.09 × 10^5 PFU/ml	5.12 × 10^4 PFU/ml	6.00 × 10^3 PFU/ml
Cc1oc2c(C)c3oc(=O)cc(C)c3cc2c1CN.Cl [AMT, 4′-Aminomethyltrioxsalen hydrochloride]	1.92 × 10^5 PFU/ml	4.32 × 10^4 PFU/ml	1.70 × 10^2 PFU/ml	–	0 PFU/ml	1.92 × 10^5 PFU/ml	90 PFU/ml	–	0 PFU/ml	0 PFU/ml
Cc1cc2cc3c(C)cc(=O)oc3c(C)c2o1 [TMP, 4,5′,8-Trimethylpsoralen]	4.86 × 10^5 PFU/ml	3.33 × 10^5 PFU/ml	1.47 × 10^5 PFU/ml	8.64 × 10^4 PFU/ml	2.24 × 10^4 PFU/ml	4.86 × 10^5 PFU/ml	1.54 × 10^5 PFU/ml	4.60 × 10^3 PFU/ml	40 PFU/ml	0 PFU/ml
